Measurements from PubChem BioAssay AID1346428 (National Center for Advancing Translational Sciences (NCATS), 2018).
In all, about 48,000 compounds went through this assay and about 1,200 (2.5%) were called active. About 2% were inconclusive and are not listed.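 Rule for the calls: active = activation of at least 60% and not above a set upper limit (about 1 call in 100 departs from these limits); inconclusive = activation of 40% to 60%, or above that upper limit; inactive = activation under 40%.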 Some of the results follow.

These molecules were tested against Probable G-protein coupled receptor 32 (Homo sapiens) (UniProt O75388) (assay: qHTS for Agonists of Human Resolvin D1 Receptor DRV1). Conditions: CHO-K1 GPR32 beta-arrestin PathHunter luminescence, 90 min; at 76.9 µM; hits give high values; zero percent set by DMSO-only wells.
Sequence of UniProt O75388 (O75388 whole entry, looked up, the tested form may be a part): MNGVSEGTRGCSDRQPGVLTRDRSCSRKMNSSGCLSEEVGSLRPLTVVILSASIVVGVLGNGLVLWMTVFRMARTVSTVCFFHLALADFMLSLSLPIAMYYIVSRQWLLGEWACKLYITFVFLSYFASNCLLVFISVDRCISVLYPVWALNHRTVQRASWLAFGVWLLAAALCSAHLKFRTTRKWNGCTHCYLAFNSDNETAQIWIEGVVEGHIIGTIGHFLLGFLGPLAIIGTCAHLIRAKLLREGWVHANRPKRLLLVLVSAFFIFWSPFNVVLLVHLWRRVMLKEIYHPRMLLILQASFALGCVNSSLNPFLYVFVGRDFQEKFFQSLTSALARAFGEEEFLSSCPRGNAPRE
Procedure, shortened: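 Agonism was scored by beta-Gal fragment complementation (chemiluminescent read, 1 h detection at ambient temperature) reporting beta-arrestin binding to GPR32 in engineered CHO-K1 cells. Compound treatment lasted 90 min at 37 C, normalized to a DMSO basal control.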
Note: 0% is about no effect.

For `CCCOc1ccc(C(=O)Nc2ccc(-c3cc4ccccc4oc3=O)c(C)c2)cc1`, which activation is on record?
The activation was inactive: 11.1%.

For `CCc1ccc(Nc2nnc(-c3cc4cc(OC)ccc4oc3=O)s2)cc1`, which activation is on record?
The activation was inactive: -6.57%.

`Cc1ccc(NC(=O)c2c(C)oc3ccc(O)c(CN(C)Cc4ccccc4)c23)c(C)c1` was tested. Which activation did it give?
The activation was inactive: -24.5%.

Which activation does the source give for `CCc1c(C)nc(SCc2nc(-c3ccccc3C)no2)[nH]c1=O` here?
Its activation is inactive: 28.8%.

How did the activation turn out when `COc1ccc(OC)c(CNc2ncnc3c2nc2n3CCCC2)c1` was run?
Its activation is inactive: -11.4%.

For `COc1cc(NC(=O)C(NS(=O)(=O)c2ccc3c(c2)CCCC(=O)N3)C(C)C)cc(OC)c1` (centres undefined), which activation is on record?
Its activation is inactive: 10.5%.

With `CCOc1ccc(S(=O)(=O)c2c(C(=O)c3ccc(C)c(C)c3)cnc3ccccc23)cc1` as the molecule, how does the activation read?
The activation was inactive: -16.5%.

Which activation does the source give for `Cc1ccc(CNC(=O)CCc2nnc3n(C)c(=O)c4sccc4n23)cc1` here?
Its activation is inactive: 3.36%.

For `Cc1ccc(NC(=O)c2sc3nc(-c4ccncc4)ccc3c2N)cc1`, which activation is on record?
The activation was inactive: -2.88%.

`CC(=O)Nc1ccc(Nc2c(CCC(C)C)c(C)c(C#N)c3nc4ccccc4n23)cc1` was tested. Which activation did it give?
The activation was inactive: 18.8%.

Which activation does the source give for `Cc1ccccc1C(=O)Nc1nnc(S(=O)(=O)N(C)c2ccc(Cl)cc2)s1` here?
Its activation is inactive: 8.7%.

How did the activation turn out when `CC(=O)N[C@@H](CC(C)C)C(=O)O` was run?
The activation was inactive: 0.723%.

For `Cc1ccccc1Cn1c(=O)n(CCc2ccccc2)c(=O)c2sc3ccccc3c21`, which activation is on record?
The activation was inactive: -2.42%.

How did the activation turn out when `COC(=O)c1sccc1S(=O)(=O)N(CC(=O)Nc1ccc(C)c(F)c1)c1ccc(C)c(C)c1` was run?
The activation was inactive: -11%.

How did the activation turn out when `Cc1ccc(CNc2ncccc2-c2nc(-c3ccc(Cl)cc3)no2)cc1` was run?
The activation was inactive: -0.805%.

With `O=C(CCCn1c(=O)c2sccc2n(Cc2ccc(Cl)cc2)c1=O)NCc1ccc2c(c1)OCO2` as the molecule, how does the activation read?
Its activation is inactive: -24.7%.

With `COc1ccccc1N1CCN(S(=O)(=O)CCNC(=O)COc2ccccc2F)CC1` as the molecule, how does the activation read?
The activation was inactive: -0.195%.

For `CN1CCCC1CCOC(C)(c1ccccc1)c1ccc(Cl)cc1` (centres undefined), which activation is on record?
The activation was inactive: -14%.

How did the activation turn out when `COC(=O)c1sccc1S(=O)(=O)N1CCN(c2ccc(Cl)cc2)CC1` was run?
The activation was inactive: -28.3%.

With `Cc1scc(CN2CCN(c3ccc(F)cc3)CC2)c1C` as the molecule, how does the activation read?
The activation was inactive: -12.1%.

With `COc1ccc(Br)cc1CNC(=O)CCc1cn(Cc2ccc(C)cc2)c2ccccc12` as the molecule, how does the activation read?
Its activation is inactive: -30.5%.

Which activation does the source give for `CCOC(=O)c1ccccc1NC(=O)c1cc2c(s1)-c1ccccc1SC2` here?
The activation was inactive: -6.56%.

For `CC1=C(c2ccc(Cl)cc2)S(=O)(=O)N=C1N1CCC(C(=O)NCCc2ccco2)CC1`, which activation is on record?
Its activation is inactive: 19.2%.

With `CC(C)c1ccc(NC(=O)CN2C(=O)CSc3ccc(S(=O)(=O)N4CCCC4)cc32)cc1` as the molecule, how does the activation read?
The activation was inactive: -22.6%.

How did the activation turn out when `Cc1ccc(-c2nc(S(=O)(=O)c3ccccc3)c(SCC(=O)NC3CCCCC3)o2)cc1` was run?
Its activation is inactive: -23.7%.

For `CC(C)CC(NC(=O)C1CCCCC1)C(=O)Nc1cccc(C(F)(F)F)c1` (centres undefined), which activation is on record?
Its activation is inactive: -4.28%.

Which activation does the source give for `COc1ccc(CCNC(=O)CCc2cn(Cc3ccc(F)cc3)c3ccccc23)cc1OC` here?
Its activation is inactive: -15.3%.

Which activation does the source give for `Cc1ccc(Cl)cc1NC(=O)c1cc(CN2CCCC2)on1` here?
The activation was inactive: -9.09%.

How did the activation turn out when `Cc1ccc(Cl)cc1N1CCN(C(=O)c2nn(C)c3c2CS(=O)(=O)c2ccccc2-3)CC1` was run?
Its activation is inactive: -1.5%.

Which activation does the source give for `CCc1ccc(NC(=O)c2ccc(NS(=O)(=O)c3c(C)noc3C)cc2)cc1` here?
Its activation is inactive: 33.8%.

With `Cc1cccc(N2CCN(C(=O)c3cccn3-c3nnc(N4CCCCC4)s3)CC2)c1C` as the molecule, how does the activation read?
Its activation is inactive: -3.7%.

How did the activation turn out when `COc1ccc(-c2cc(C(F)(F)F)nc(SCCC(=O)Nc3cccc(OC)c3)n2)cc1` was run?
The activation was inactive: -28.8%.

Which activation does the source give for `CCc1cccc(C)c1NC(=O)c1cc(S(=O)(=O)N2CCCCCC2)cn1C` here?
Its activation is inactive: 11.8%.

For `CCOC(=O)Cn1c(=O)oc2cc(S(=O)(=O)NC(C)c3ccccc3)ccc21` (centres undefined), which activation is on record?
Its activation is inactive: -3.52%.

With `COC(=O)c1nc2n(n1)C(c1cc(OC)ccc1OC)C=C(c1ccc(Br)cc1)N2` (centres undefined) as the molecule, how does the activation read?
Its activation is inactive: -2.74%.

With `CCc1ccc(CN(C(=O)Nc2cccc(Cl)c2)c2ccccn2)cc1` as the molecule, how does the activation read?
The activation was inactive: 14.8%.

`O=C(c1ccccc1F)N1c2nc(-c3ccco3)nn2C2(CCCCC2)[C@@H]2CCCC[C@@H]21` was tested. Which activation did it give?
Its activation is inactive: -48.1%.

`COc1ccc(Cl)cc1NC(=O)c1cnc(N2CCCCC2)c2ccccc12` was tested. Which activation did it give?
The activation was inactive: -11.4%.

For `Cc1c(Cl)cccc1NS(=O)(=O)c1ccc(NS(=O)(=O)c2ccc3c(c2)OCCO3)cc1`, which activation is on record?
Its activation is active: 68.2%.

Which activation does the source give for `COc1ccccc1CNC(=O)c1ccc(-n2c(C)cc3c2CCCC3)cc1` here?
Its activation is inactive: -9.16%.

`CCOC(=O)c1ccccc1NC(=O)N1CC(C)Oc2ccc(C)cc21` (centres undefined) was tested. Which activation did it give?
The activation was inactive: -41.7%.

With `CCOc1ccc(NC(=O)C2CCN(S(=O)(=O)c3c(C)noc3/C=C/c3ccco3)CC2)cc1` as the molecule, how does the activation read?
Its activation is inactive: -34.9%.

For `CCCCOC(=O)/C(C#N)=C\c1ccc(-c2ccc(Cl)cc2)o1`, which activation is on record?
The activation was inactive: -5.28%.

With `CCOc1ccc(NC(=O)CCn2cccn2)cc1` as the molecule, how does the activation read?
The activation was inactive: -3.25%.

With `O=C1CN(C(=O)COc2ccc(Cl)cc2)C(c2ccc(F)cc2)c2cc(Cl)ccc2N1` (centres undefined) as the molecule, how does the activation read?
The activation was inactive: -14.1%.

`Cc1ccc(-c2nc3ccccn3c2Nc2ccc3c(c2)OCCO3)o1` was tested. Which activation did it give?
The activation was inactive: -3.45%.

With `CCOC(=O)N1CCN(C(=O)c2ccc3c(c2)N(Cc2cccc(Cl)c2)C(=O)c2ccccc2S3=O)CC1` (centres undefined) as the molecule, how does the activation read?
The activation was inactive: -7.35%.

Which activation does the source give for `CC(=O)c1ccc(C(=O)N(Cc2cccnc2)c2nc3c(C)c(C)ccc3s2)cc1` here?
The activation was inactive: -21.4%.

`COc1cc(NC(=O)C(=O)Nc2ccc3nc4n(c(=O)c3c2)CCCCC4)cc(OC)c1OC` was tested. Which activation did it give?
Its activation is inactive: -9.81%.

For `O=C(Nc1ccc(Br)cc1)C1CCN(c2ncccn2)CC1`, which activation is on record?
The activation was inactive: 1.5%.

With `COC(=O)c1ccc(-c2nc(-c3ccc(OC)c(OC)c3)no2)cc1` as the molecule, how does the activation read?
The activation was inactive: 1.27%.

Which activation does the source give for `Cc1ccc(-c2nn(C)c(=O)c3ccccc23)cc1S(=O)(=O)NCCCN(C)C` here?
Its activation is inactive: -28.9%.

With `CC(=O)Nc1ccc(NC(=O)C(c2ccccc2)N2Cc3ccccc3C2=O)cc1` (centres undefined) as the molecule, how does the activation read?
The activation was inactive: -17.1%.

For `CCc1ccc(C(=O)NC2=NC(c3cc(OC)ccc3OC)CC(=O)N2)cc1` (centres undefined), which activation is on record?
Its activation is inactive: -11.4%.
